Source: publication PMC4336329 (PLoS ONE, 2015)
In all, about 310,000 compounds went through this assay and about 2,200 (0.71%) showed an effect of 50% or more. The effect is printed as a negative number. Some of the results follow.

biological target: human ether-à-go-go-related gene (hERG) potassium channel (human, UniProt Q12809); experiment: primary screen, population patch clamp on CHO cells stably expressing hERG
Sequence (Q12809 whole entry, looked up): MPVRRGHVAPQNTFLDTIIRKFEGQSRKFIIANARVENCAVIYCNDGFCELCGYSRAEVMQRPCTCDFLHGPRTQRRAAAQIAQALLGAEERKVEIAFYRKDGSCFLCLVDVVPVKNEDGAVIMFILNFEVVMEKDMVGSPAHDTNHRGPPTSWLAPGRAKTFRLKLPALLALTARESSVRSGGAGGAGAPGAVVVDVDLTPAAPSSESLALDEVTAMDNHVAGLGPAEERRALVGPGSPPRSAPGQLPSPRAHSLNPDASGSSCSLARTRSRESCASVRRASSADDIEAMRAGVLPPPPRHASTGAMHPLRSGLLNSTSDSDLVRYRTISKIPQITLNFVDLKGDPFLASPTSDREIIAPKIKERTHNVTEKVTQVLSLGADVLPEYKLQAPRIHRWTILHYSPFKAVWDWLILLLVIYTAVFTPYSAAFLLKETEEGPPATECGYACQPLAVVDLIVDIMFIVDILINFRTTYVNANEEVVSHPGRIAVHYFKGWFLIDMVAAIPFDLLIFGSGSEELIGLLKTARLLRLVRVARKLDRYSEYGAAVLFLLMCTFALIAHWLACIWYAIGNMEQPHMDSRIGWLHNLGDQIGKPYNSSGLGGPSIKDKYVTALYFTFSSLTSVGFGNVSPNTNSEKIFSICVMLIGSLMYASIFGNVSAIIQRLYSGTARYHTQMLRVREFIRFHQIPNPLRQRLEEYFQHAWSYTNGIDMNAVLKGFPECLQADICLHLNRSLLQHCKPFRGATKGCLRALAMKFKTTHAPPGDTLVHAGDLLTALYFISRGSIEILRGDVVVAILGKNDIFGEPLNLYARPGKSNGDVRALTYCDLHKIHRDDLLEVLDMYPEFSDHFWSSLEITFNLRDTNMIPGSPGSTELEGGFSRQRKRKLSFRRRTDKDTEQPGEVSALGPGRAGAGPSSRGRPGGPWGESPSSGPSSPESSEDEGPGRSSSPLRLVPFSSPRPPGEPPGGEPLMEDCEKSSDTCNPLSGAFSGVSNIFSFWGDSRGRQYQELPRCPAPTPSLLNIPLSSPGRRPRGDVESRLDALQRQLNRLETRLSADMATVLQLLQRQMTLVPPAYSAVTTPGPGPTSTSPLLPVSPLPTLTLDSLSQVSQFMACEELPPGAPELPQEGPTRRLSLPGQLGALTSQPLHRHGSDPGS

Compound	hERG current change (%, negative = inhibition) at 1uM [%]
NC(=S)N/N=C/c1ccc(-c2cccc([N+](=O)[O-])c2)o1	-7.29
COc1ccc(S(=O)(=O)NN(C)c2ncc(C(F)(F)F)cc2Cl)cc1	8.45
COC1c2ccccc2C(=O)N1CCc1ccc(Cl)cc1 (centres unmarked)	13.5
CCOC(=O)N1CCN(C(=O)CN2C(=O)COc3ccc(C(C)(C)C)cc32)CC1	0.234
O=C(Cn1nnc(-c2ccccc2)n1)N/N=C/c1cccc([N+](=O)[O-])c1O	17.7
O=C(Cc1cccs1)NCCS(=O)(=O)N1CCN(c2ccccc2F)CC1	-1.63
c1ccc(Nc2nc(N3CCOCC3)nc(N3CCOCC3)n2)cc1	9.49
CCn1cc(C=C2C(=O)N(C)C(=O)N(C)C2=O)c2ccccc21	8.37
CCCc1nnc(NC(=O)CN2CCN(C)CC2)s1.Cl	4.48
CC1CN(C(=O)Cn2cnc3c2c(=O)n(C)c(=O)n3C)CC(C)O1 (centres unmarked)	12
Cn1cnc([N+](=O)[O-])c1Sc1nnc(-c2cccnc2)n1C	17.2
O=C(Oc1ccccc1OC(=O)N1CCOCC1)N1CCOCC1	15.9
Cc1ccc(S(=O)(=O)N2CCCCC2)cc1NC(=O)C1=NN(c2ccccc2)C(=O)CC1	3.77
CC(C)CNC(=S)NC1CCCC1	0.0993
C[C@H](NC(=O)[C@@H]1Cc2ccccc2CN1C(=O)OC(C)(C)C)C(=O)NC1CCCC1	10.9
COc1ccc(CCN2CC34C=CC(O3)C(C(=O)NCc3ccccc3)C4C2=O)cc1OC (centres unmarked)	16.5
CCN(Cc1ccncc1)C(=O)c1cc(COc2ccc(F)cc2F)on1	1.82
O=C1c2ccccc2NC(c2cccc(Cl)c2)N1N=C1CCCCCC1 (centres unmarked)	15.1
O=C(CN1CCN(c2ncccn2)CC1)NCc1ccccc1	13.5
CC(=O)N1CCN(C(=O)c2cccc(S(=O)(=O)N3CCN(c4ccc(F)cc4)CC3)c2)CC1	8.35
COc1ccc(/C=C/S(=O)(=O)NCc2ccccc2)cc1OC	8.59
CCN(CC)C(=O)Cn1c(=O)n(C)c2ccccc21	6.43

Compound	hERG current change (%, negative = inhibition) at 1uM [%]
Cc1ccc(NC(=O)CS(=O)(=O)c2c[nH]c3ccccc23)c(C)c1	7.45
COc1ccccc1C(=O)NCc1ccccn1	16.5
O=C(O)c1ccc(NC(=O)C2C3CCC(C3)C2C(=O)O)cc1 (centres unmarked)	12.5
CC1=C(C(=O)OCc2ccccc2)C(c2ccc([N+](=O)[O-])cc2)NC(=O)N1CCCCCC(=O)O (centres unmarked)	4.06
CCN(CC)S(=O)(=O)c1ccc(NC(=O)CCNC(=O)c2ccco2)cc1	17
CC(C)(C)C#CCn1c(/C=[N+](\[O-])C2CCCCC2)nc2ccccc21	-2.66
Cc1cc(C)cc(N(CCC#N)C(=O)COC(=O)CN2C(=O)NC(C)(C)C2=O)c1	13.3
COCCn1c(-c2ccc(Cl)cc2)nc2oc3cc(OC)ccc3c(=O)c2c1=O	5.36
COc1ccc(Cl)cc1NC(=O)CCN1CCOCC1	10.8
OC(CN1CCN(c2cccc(C(F)(F)F)c2)CC1)c1c[nH]c2ccccc12 (centres unmarked)	11.7
Cc1cc(C)c(C)c(S(=O)(=O)N2CCC(C(=O)Nc3ccc(S(=O)(=O)N4CCOCC4)cc3)CC2)c1C	14.5
COc1ccc(NC(=O)CS(=O)CC(=O)Nc2cc(Cl)ccc2OC)cc1 (centres unmarked)	2.24
COc1ccc(S(=O)(=O)N2CCOCC2)cc1Cl	1.7
O=C1CCCc2cc(S(=O)(=O)N3CCC(C(=O)NCc4ccccc4)CC3)ccc2N1	12.5
COc1cccc(N=Nc2c(C)[nH]n(-c3ccccc3)c2=O)c1	9.16
O=C(c1cnn(-c2ccccc2)c1)c1ccccc1O	9.45
CCNC(=O)NC(=O)COC(=O)c1cccc(NS(=O)(=O)/C=C/c2ccccc2)c1	7.98
Cc1cccn2cc(CNc3ccccc3)nc12	-0.347
COc1cc(C2NC(=S)NC(O)(C(F)(F)F)C2C(=O)c2cccs2)cc(OC)c1O (centres unmarked)	25.1
CC1CCC(NC(=O)c2ccc(NC(=O)c3ccc(=O)[nH]c3)cc2)CC1 (centres unmarked)	7.21
Cc1ccc(NCC(=O)N/N=C/c2cccc(Br)c2)cc1	7.99
CCOC(=O)CC(=O)CSc1nnc2c(n1)[nH]c1ccccc12	12.1

Compound	hERG current change (%, negative = inhibition) at 1uM [%]
O=C(NCCN1CCOCC1)c1cc2c(=O)n3ccccc3nc2n1Cc1ccccc1	8.53
Cc1ccc(S(=O)(=O)NCc2ccccc2)cc1C(=O)NC1CCC(C)CC1 (centres unmarked)	5.85
S=C(N/N=C/c1ccc2ncccc2c1)Nc1ccccc1	38.2
COc1ccc(CN2C(=O)C(=O)N(CC(N)=O)C2=O)cc1	14.9
CCc1cc2c(-c3ccccc3)cc(=O)oc2cc1OC(=O)c1cccs1	8.71
O=C1CCC(=O)N1CCSC(=S)N1CCSCC1	4.36
O=C(/C=C/c1ccc(Cl)c([N+](=O)[O-])c1)Nc1ccc(N2CCCC2)cc1	9.83
CC(=O)C1=C(Nc2ccc(C)cc2)CC(C)(O)C(C(C)=O)C1c1ccco1 (centres unmarked)	14
O=C(NCc1ccc(F)cc1)C1Cc2ccccc2CN1C(=O)c1ccco1 (centres unmarked)	-9.41
Cc1nn(-c2ccc(F)cc2)c2sc(C(=O)OC3CCOC3=O)cc12 (centres unmarked)	12.4
Nc1nnc(CCCCCCCCCCc2nnc(N)s2)s1	11.7
CCCC12CN3CCN(CC(C3)/C1=N\NC(=O)c1ccccc1Cl)C2	5.82
O=S(=O)(/C=C/c1ccccc1)N1CCOCC1	9.72
Cc1nc(C(=O)Nc2ccc(Cl)cc2)nn1-c1ccc([N+](=O)[O-])cc1	-38.4
NC(=O)C1CCN(c2ccc3c(c2)S(=O)(=O)c2ccccc2C3=O)CC1	8.49
N#CC(C#N)=C1C=CC=CN1/C(=C\c1ccco1)C(=O)c1ccc(-c2ccccc2)cc1	8.49
Cc1cccc(N2CCN(S(=O)(=O)c3c(C)[nH]c(C)c3C(=O)N3CCCC3)CC2)c1C	4.74
CC(C)NC(=O)[C@@H]1C[C@@]1(C)[C@@H](NC(=O)OCc1ccccc1)c1ccccc1	15.3
COc1ccccc1N1CCN(/N=C/c2ccc(Cl)c([N+](=O)[O-])c2)CC1	10.9
CCCCn1c(=O)c(C(=O)NC(C)c2ccccc2)c(O)c2ccccc21 (centres unmarked)	20.6
CC(=O)N1c2ccc(S(=O)(=O)N3CCC(C(=O)Nc4cccc(C)c4C)CC3)cc2CC1C (centres unmarked)	-16.8
COc1ccccc1OCc1ccc(C(=O)NC(C)c2ccccc2)o1 (centres unmarked)	4.47

Compound	hERG current change (%, negative = inhibition) at 1uM [%]
Cc1cccc(NC(=O)CSc2nnc(CNC(=O)c3ccco3)n2C)c1	24.2
NC(=O)c1cc(-c2ccccc2)sc1NC(=O)CN1CCCCC1	7.93
Cc1cccc(N2C(=O)C3C4C=CC(C4)C3C2=O)c1 (centres unmarked)	4.48
Cc1cccn2c(=O)c3cc(S(=O)(=O)c4ccccc4)c(=N)n(Cc4ccc(F)cc4)c3nc12	24.7
C/C(=N\Nc1ncc(Br)cn1)c1cccc([N+](=O)[O-])c1	10.2
O=C(CN1C(=O)NC2(CCOc3ccccc32)C1=O)c1ccc(Cl)s1 (centres unmarked)	8.7
COC(=O)CCCC1=CC2=CC(=O)C(C)(OC(=O)c3cccs3)C(=O)C2=CN1c1ccc(OC)cc1 (centres unmarked)	2.28
Cc1ccc(C)c(N2CCN(S(=O)(=O)c3ccc4c(c3)oc(=O)n4C)CC2)c1	14
Cc1ccc(S(=O)(=O)N(CC#N)CC#N)cc1	8.18
COc1cccc(S(=O)(=O)NCc2ccc(C(=O)N3CCN(c4ccccc4)CC3)cc2)c1	1.61
O=C(NC1CCS(=O)(=O)C1)/C(=C\c1ccc(F)cc1)NC(=O)c1ccccc1 (centres unmarked)	-3.97
CN(Cc1ccno1)C(=O)CC1C(=O)NCCN1CC(c1ccccc1)c1ccccc1 (centres unmarked)	11.9
CCOc1ccc(CNC(=O)c2nnc(CS(=O)(=O)c3ccccc3)o2)cc1OC	13.6
Cc1ccc2c(c1)C=CC(C#N)N2C(=O)c1ccccc1 (centres unmarked)	18.8
CCOc1ccccc1NC(=S)N1CCCc2ccccc21	8.14
COc1ccccc1C(=O)Nc1ccccc1C(=O)NCc1ccco1	9.88
Cc1ccc(N2CN(Cc3ccco3)CNC2=S)cc1	16.5
Cn1cnnc1SCC(=O)Nc1cccc(S(=O)(=O)N2CCOCC2)c1	2.03
O=C(CCN1C(=O)c2ccccc2S1(=O)=O)Nc1ccc(C(=O)O)cc1	8.13
CCCCN(C(=O)c1oc2ccc(OCC)cc2c1C)c1c(N)n(CC(C)C)c(=O)[nH]c1=O	11.4
